Measurements from PubChem BioAssay AID504845 (National Center for Advancing Translational Sciences (NCATS), 2011).
Among all 390,000 compounds or so, about 150 (0.038%) were called active. The inconclusive results got no clear call from the source; some entries with a clear call stand among them for comparison. Calls follow the shape of the dose curve; as a rule, active = well fitted inhibition curve with a large enough effect; inconclusive = small, poorly fitted or top-dose-only effect; inactive = no such curve, though single readings can be large or run the other way. Potencies of inconclusive entries are doubtful fits and often do not repeat.

The compounds below were run against Regulator of G-protein signaling 4 (Homo sapiens) (UniProt P49798) (assay: Inhibitors of Regulator of G Protein Signaling (RGS) 4: qHTS). Details: Transcreener GDP fluorescence polarization, RGS4-accelerated GTP hydrolysis; series mostly up to 114 µM; activity change, negative = inhibition: at the top concentration.
Outline: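 MLSMR compounds (23 nl, pin-transferred) preincubated 10 min at room temperature with a 500nM (2x) first reagent, then RGS4 at 900nM (2x) plus Transcreener GDP mix added; fluorescence polarization (620/688 nm) read before and after 90 min at 30 °C.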
% is scaled to controls: 0 for no effect and ±100 for the full control effect; potency is read from the fitted curve at half-maximal effect; tags tell the direction and shape of the fitted curve.
Also: nearly all actives have a fitted effect of over 75% in size.

Chain of UniProt P49798 (P49798 whole entry, looked up): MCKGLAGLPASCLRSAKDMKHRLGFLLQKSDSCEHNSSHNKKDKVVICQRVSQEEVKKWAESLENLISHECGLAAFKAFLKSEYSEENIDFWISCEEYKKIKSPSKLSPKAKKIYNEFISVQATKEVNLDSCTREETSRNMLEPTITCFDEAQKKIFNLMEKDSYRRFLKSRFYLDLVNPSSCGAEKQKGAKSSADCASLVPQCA

Row | SMILES | activity change, negative = inhibition | Potency
1 | CCn1ncc(/C=N\NC(=O)c2csc3ccccc23)c1C | inactive: -0.133% | 
2 | O=C(Oc1ccc2ccc(OC(=O)N3CCCCCC3)cc2c1)N1CCCCCC1 | inactive: -12.3% | 
3 | N=C(N)S/C=C\C(=O)O |  | inconclusive: 2.99 µM [inhibitor, partial curve, poor fit]
4 | O=C(NCC1CCCO1)c1cc([N+](=O)[O-])ccc1N1CCC(Cc2ccccc2)CC1 (stereo not given) | inactive: -39.5% | 
5 | c1ccc2[nH]c(-c3ccncc3)nc2c1 | inactive: -39.6% | 
6 | Cc1c(NC(=O)/C(C#N)=C/c2ccc(-c3cc(Cl)ccc3Cl)o2)c(=O)n(-c2ccccc2)n1C |  | inconclusive: 89.1 µM [inhibitor, partial curve, poor fit]
7 | Cc1cc(=O)n2nc(-c3ccccc3)sc2c1C#N |  | inconclusive: 50.1 µM [inhibitor, partial curve, poor fit]
8 | CC1CC1C(=O)Nc1nc(-c2ccccn2)cs1 (stereo not given) |  | inconclusive: 79.4 µM [inhibitor, partial curve, poor fit]
9 | Cc1cc(-c2csc(NC(=O)c3ccc(C#N)cc3)n2)c(C)n1Cc1ccco1 |  | inconclusive: 89.1 µM [inhibitor, single point]
10 | CCn1c(SCC(=O)NC(=O)NC(C)(C)C)nc2ccccc21 |  | inconclusive: 39.8 µM [inhibitor, partial curve, poor fit]
11 | CCOc1ccccc1-c1c2cc(O)c(=O)cc-2oc2cc(O)c(O)cc12 |  | inconclusive: 89.1 µM [inhibitor, partial curve, poor fit]
12 | O=C(CC(SCc1ccco1)c1ccc(O)cc1)c1cccs1 (stereo not given) | inactive: -7.04% | 
13 | O=C(CSc1nccn1Cc1ccc(F)cc1)Nc1ccc2c(c1)OCCO2 | inactive: 15.7% | 
14 | Brc1ccc(CSc2nnc(Cc3c[nH]c4ccccc34)o2)cc1 |  | inconclusive: 89.1 µM [inhibitor, single point]
15 | Oc1c(CN2CCOCC2)cc(CN2CCOCC2)c(O)c1O | inactive: -118% | 
16 | Cc1csc(NC(=O)CSc2ccc(-c3ccccn3)nn2)n1 | inactive: 17.8% | 
17 | COc1ccc(-n2cnnc2SCC(=O)c2cc(C)n(Cc3cccs3)c2C)cc1 |  | inconclusive: 39.8 µM [inhibitor, partial curve, poor fit]
18 | Oc1c(Br)cc2oc3c(c2c1CNCc1ccccc1)CCCC3 |  | inconclusive: 100 µM [inhibitor, single point]
19 | O=c1cc(O)c2sc3nc(-c4cccnc4)cc(C(F)(F)F)c3c2[nH]1 |  | inconclusive: 50.1 µM [inhibitor, partial curve, poor fit]
20 | CCCCOC(=O)C(C)Nc1n[nH]c(=S)[nH]c1=O (stereo not given) |  | inconclusive: 56.2 µM [inhibitor, partial curve, poor fit]
21 | N#CC(C#N)=C1C=CC=CN1/C(=C\c1ccco1)C(=O)c1ccc(-c2ccccc2)cc1 |  | inconclusive: 10 µM [inhibitor, full curve, poor fit]
22 | Cc1ccccc1S(=O)(=O)/N=C(/c1ccccc1)N1CCOCC1 |  | inconclusive: 35.5 µM [inhibitor, partial curve, poor fit]

Row | SMILES | activity change, negative = inhibition | Potency
23 | CCC(C(=O)NC1CCCC1)N(Cc1ccc2c(c1)OCO2)C(=O)c1snc(C(N)=O)c1N (stereo not given) | inactive: -11.2% | 
24 | O=C(Nc1nnc(SCc2ccc(F)cc2)s1)c1ccc2c(c1)C(=O)N(c1ccccc1Cl)C2=O | inactive: 7.56% | 
25 | CC(c1ccco1)N(C(=O)c1ccc(F)cc1)c1ccccn1 (stereo not given) | inactive: -1.79% | 
26 | S=c1[nH]nc(-c2cc(-c3ccccc3)n[nH]2)n1/N=C/c1c2ccccc2cc2ccccc12 |  | inconclusive: 79.4 µM [inhibitor, partial curve, poor fit]
27 | COc1cc(NS(C)(=O)=O)ccc1Nc1c2ccccc2nc2ccccc12 |  | inconclusive: 37.7 µM [inhibitor, single point]
28 | CN(C)c1cccc(C(=O)OCC(=O)N2CCc3ccccc3C2)c1 | inactive: -3.82% | 
29 | COc1ccc(-c2ccc3c(c2)C2CC3CCN2C(=O)OCc2ccccc2)cc1 (stereo not given) | inactive: -9.72% | 
30 | CC(C)N1C(=O)/C(=C\c2nc3ccccc3c(=O)[nH]2)c2ccccc21 |  | inconclusive: 56.2 µM [inhibitor, partial curve, poor fit]
31 | COc1ccccc1S(=O)(=O)Cc1ccc(C(=O)N2CCN(c3ccccn3)CC2)o1 |  | inconclusive: 79.4 µM [inhibitor, partial curve, poor fit]
32 | COc1ccc(-n2nc3ccc(N)cc3n2)cc1Cl | inactive: -18.6% | 
33 | CCN(CC)S(=O)(=O)c1cc(NC(=O)C(C)OC(=O)c2[nH]c(C)c(C(C)=O)c2C)ccc1C (stereo not given) | inactive: -23.6% | 
34 | CC(C)Oc1cccc(C(=O)NC(=S)Nc2ccc3c4c(cccc24)CC3)c1 |  | inconclusive: 79.4 µM [inhibitor, single point]
35 | CCCN(C(=O)CCc1nc(-c2ccccc2F)no1)c1ccc(CC)cc1 | inactive: -0.617% | 
36 | CCc1nc(SCC(=O)Nc2ccc(N(C)C)cc2)c2ccccc2n1 |  | inconclusive: 70.8 µM [inhibitor, partial curve, poor fit]
37 | C[n+]1ccccc1N1CCN(c2ccccc2Cl)CC1 |  | inconclusive: 50.1 µM [inhibitor, partial curve, poor fit]
38 | CCOC(=O)CSC1=C(C#N)C(c2ccccc2OCC)C(C#N)C(=O)N1 (stereo not given) | inactive: -3.95% | 
39 | [O-]/[N+](=C\c1ccncc1)c1ccccc1 |  | inconclusive: 50.1 µM [inhibitor, partial curve, poor fit]
40 | CCn1c(-c2cc(-c3ccc(OC(C)C)cc3)nc3ccccc23)n[nH]c1=S | inactive: -23.8% | 
41 | Cc1ccc(Cn2c(N)nc3ccccc32)cc1 | inactive: -17.6% | 
42 | Cc1cc(N2CCCC2)ccc1/C=C1\NC(=S)N(C)C1=O |  | inconclusive: 112 µM [inhibitor, partial curve, poor fit]
43 | C[C@@H]1C[C@H]2[C@@H]3CCC4=CC(=O)C=C[C@]4(C)[C@@]3(F)[C@@H](O)C[C@]2(C)[C@@]1(O)C(=O)CO |  | inconclusive: 0.0238 µM [inhibitor, full curve, poor fit]
44 | COc1ccc(-n2c(C)cc(/C=C/c3nc(O)c([N+](=O)[O-])c(=O)[nH]3)c2C)cc1 | inactive: -30.5% | 

Row | SMILES | activity change, negative = inhibition | Potency
45 | CN(C)c1ccc(C=c2c3cc(O)ccc3n3c2cc(-c2ccccc2)[n+]3C)cc1 |  | inconclusive: 100 µM [inhibitor, partial curve, poor fit]
46 | COc1ccc2[nH]c3c(c2c1)CCN1C(=O)C(CC(=O)NCC24CC5CC(CC(C5)C2)C4)C[C@H](C(=O)N2CCOCC2)[C@@]31C (stereo not given in full) | inactive: -5.41% | 
47 | CCOc1ccccc1/C=N/n1c(COc2ccccc2)n[nH]c1=S |  | inconclusive: 35.5 µM [inhibitor, full curve, poor fit]
48 | O=C(c1ccc2c(c1)OCO2)c1cn(Cc2ccc(F)cc2)c2ccccc2c1=O | inactive: 10.6% | 
49 | COCCCN1C(=O)C(=O)/C(=C(/O)c2ccc(C)cc2)C1c1ccccc1 (stereo not given) |  | inconclusive: 89.1 µM [inhibitor, single point]
50 | Cn1cc(Br)c(C(=O)NC(=S)Nc2ccc(S(N)(=O)=O)cc2)n1 |  | inconclusive: 100 µM [inhibitor, partial curve, poor fit]
51 | COc1ccc(-c2nnc3ccc(SCC(=O)NCc4ccco4)nn23)cc1OC |  | inconclusive: 89.1 µM [inhibitor, partial curve, poor fit]
52 | NC(=O)c1c(Nc2nc3c(F)cccc3s2)sc2c1CCCC2 |  | inconclusive: 79.4 µM [inhibitor, partial curve, poor fit]
53 | CN(CCO)c1ccc(C=NNc2ccc([N+](=O)[O-])cc2S(=O)(=O)Nc2ccccc2C(=O)O)cc1 |  | inconclusive: 44.7 µM [inhibitor, partial curve, poor fit]
54 | CN(C)c1ccc(C(=S)N2CCN(C(=S)Nc3ccc(Cl)cc3)CC2)cc1 |  | inconclusive: 50.1 µM [inhibitor, partial curve, poor fit]
55 | CNS(=O)(=O)c1cccc(C(=O)OCC(=O)c2cc(C)n(CC3CCCO3)c2C)c1 (stereo not given) |  | inconclusive: 100 µM [inhibitor, partial curve, poor fit]
56 | Cc1noc(NS(=O)(=O)c2ccc(N/C=C\C(=O)c3cccc4ccccc34)cc2)c1C |  | inconclusive: 17.8 µM [inhibitor, full curve, poor fit]
57 | CN(C)c1nc(=NCc2cccs2)ss1 |  | inconclusive: 44.7 µM [inhibitor, partial curve, poor fit]
58 | CC(Oc1ccc(Cl)cc1)C(=O)NCCN1C(=O)S/C(=C\c2cccnc2)C1=O (stereo not given) |  | inconclusive: 20 µM [inhibitor, full curve, poor fit]
59 | COc1cc(C(=O)NCC(=O)Nc2ccc(F)c(F)c2)ccc1OCC(=O)N1CCOCC1 |  | inconclusive: 89.1 µM [inhibitor, single point]
60 | C=C1/C(=C\C=C2/CCC[C@]3(C)C([C@H](C)CCCC(C)(C)O)CC[C@@H]23)C[C@@H](O)C[C@@H]1O (stereo not given in full) |  | inconclusive: 0.844 µM [inhibitor, partial curve, poor fit]
61 | O=C(CSc1nc(-c2ccccc2)c(-c2ccccc2)[nH]1)NCc1ccco1 |  | inconclusive: 89.1 µM [inhibitor, single point]
62 | CCc1ccccc1NC(=O)CN(Cc1ccccc1)S(=O)(=O)c1ccc2nc(C)sc2c1 | inactive: -0.418% | 
63 | N#Cc1c(-c2ccccc2)cc(-c2ccccc2)nc1SCCC(=O)O |  | inconclusive: 89.1 µM [inhibitor, single point]
64 | O=C1/C(=C\c2cc([N+](=O)[O-])ccc2O)SC(=S)N1Cc1ccc(Cl)cc1 |  | inconclusive: 44.7 µM [inhibitor, partial curve, poor fit]
65 | O=c1cc(-c2ccccc2)nc(N2CCCCC2)[nH]1 |  | inconclusive: 89.1 µM [inhibitor, single point]
